Test results taken from publication PMC5625047.
These are yes or no findings as the source states them, for the method shown. For part of these data: In cells and extracts the contact can be indirect. Some entries that bind do so weakly or less than the wild type. Where a sequence is shown, tags or fusion partners need not be part of it.

By UniProt entry, the sequences of proteins in these tests, tags left out. Where a name states a change or a piece, a line headed by the entry shows the natural chain unless it says otherwise.
UniProt Q16539: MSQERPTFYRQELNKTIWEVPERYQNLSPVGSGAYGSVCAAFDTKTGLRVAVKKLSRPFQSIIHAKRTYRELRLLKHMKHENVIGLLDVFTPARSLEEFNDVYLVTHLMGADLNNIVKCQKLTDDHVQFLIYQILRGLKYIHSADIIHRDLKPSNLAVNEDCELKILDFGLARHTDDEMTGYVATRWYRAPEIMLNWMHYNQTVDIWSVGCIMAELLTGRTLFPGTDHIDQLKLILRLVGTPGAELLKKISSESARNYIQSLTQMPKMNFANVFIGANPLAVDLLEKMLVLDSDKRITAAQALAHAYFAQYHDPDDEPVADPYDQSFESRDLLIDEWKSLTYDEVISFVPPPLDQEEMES

Legend:
[1] = target: FLAG-tagged p38α C119S/C162S (HEK293) (UniProt Q16539); test: co-IP; HEK293 cells, 100 μM H2O2; anti-FLAG M2 affinity gel overnight at 4 °C, 50 mM Tris-HCl pH 7.4, 150 mM NaCl, 1% Triton X-100; precipitates on non-reducing SDS-PAGE, immunoblot for the dimer
[2] = target: FLAG-tagged WT p38α (HEK293) (UniProt Q16539); test: as above
[3] = target: FLAG-tagged p38α C162S (HEK293) (UniProt Q16539); test: non-reducing SDS-PAGE with immunoblot; HEK293 cells overexpressing FLAG-p38α and/or HA-MKK3, 10, 50 or 100 μM H2O2 for 10 min (also with 2 μM auranofin), harvested in SDS sample buffer with 100 μM maleimide; shows only the disulfide-linked complex
[4] = target: FLAG-tagged p38α C119S (HEK293) (UniProt Q16539); test: as above
[5] = target: FLAG-tagged p38α C119S/C162S (HEK293) (UniProt Q16539); test: as above
[6] = target: FLAG-tagged WT p38α (HEK293) (UniProt Q16539); test: as above
[7] = target: FLAG-tagged WT p38α (H9C2) (UniProt Q16539); test: non-reducing SDS-PAGE with immunoblot; H9C2 cells, native or transfected, simulated ischemia 5-40 min and simulated reperfusion 2.5-40 min, harvested in SDS sample buffer with 100 μM maleimide; shows only the disulfide-linked complex
[8] = target: FLAG-tagged p38α C119S/C162S (H9C2) (UniProt Q16539); test: as above
[9] = target: T1, HA-tagged MKK3 (HEK293), P46734; test: non-reducing SDS-PAGE with immunoblot; HEK293 cells overexpressing FLAG-p38α and/or HA-MKK3, 10, 50 or 100 μM H2O2 for 10 min (also with 2 μM auranofin), harvested in SDS sample buffer with 100 μM maleimide; shows only the disulfide-linked complex; settings: remark: other sources report otherwise
T1 chain: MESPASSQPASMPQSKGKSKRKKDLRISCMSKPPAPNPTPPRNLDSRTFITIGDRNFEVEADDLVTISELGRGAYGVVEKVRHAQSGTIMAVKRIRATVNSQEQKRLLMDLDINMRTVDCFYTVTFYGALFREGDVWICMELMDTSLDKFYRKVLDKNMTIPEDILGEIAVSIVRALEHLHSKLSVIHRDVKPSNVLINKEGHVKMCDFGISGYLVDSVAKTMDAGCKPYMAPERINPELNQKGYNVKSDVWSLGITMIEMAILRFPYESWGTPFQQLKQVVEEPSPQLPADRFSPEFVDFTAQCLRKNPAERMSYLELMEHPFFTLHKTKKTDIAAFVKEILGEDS

B1: HA-tagged MKK3 (HEK293) (protein, UniProt P46734 1-347)
chain: MESPASSQPASMPQSKGKSKRKKDLRISCMSKPPAPNPTPPRNLDSRTFITIGDRNFEVEADDLVTISELGRGAYGVVEKVRHAQSGTIMAVKRIRATVNSQEQKRLLMDLDINMRTVDCFYTVTFYGALFREGDVWICMELMDTSLDKFYRKVLDKNMTIPEDILGEIAVSIVRALEHLHSKLSVIHRDVKPSNVLINKEGHVKMCDFGISGYLVDSVAKTMDAGCKPYMAPERINPELNQKGYNVKSDVWSLGITMIEMAILRFPYESWGTPFQQLKQVVEEPSPQLPADRFSPEFVDFTAQCLRKNPAERMSYLELMEHPFFTLHKTKKTDIAAFVKEILGEDS
- binding [1]: no binding
- binding [2]: binds
- binding [3]: binds
- binding [4]: binds
- binding [5]: no binding
- binding [6]: binds

B2: HA-tagged MKK3 (H9C2) (protein, UniProt P46734 1-347)
chain: MESPASSQPASMPQSKGKSKRKKDLRISCMSKPPAPNPTPPRNLDSRTFITIGDRNFEVEADDLVTISELGRGAYGVVEKVRHAQSGTIMAVKRIRATVNSQEQKRLLMDLDINMRTVDCFYTVTFYGALFREGDVWICMELMDTSLDKFYRKVLDKNMTIPEDILGEIAVSIVRALEHLHSKLSVIHRDVKPSNVLINKEGHVKMCDFGISGYLVDSVAKTMDAGCKPYMAPERINPELNQKGYNVKSDVWSLGITMIEMAILRFPYESWGTPFQQLKQVVEEPSPQLPADRFSPEFVDFTAQCLRKNPAERMSYLELMEHPFFTLHKTKKTDIAAFVKEILGEDS
- binding [7]: binds
- binding [8]: no binding

B3: HA-tagged MKK3 (HEK293), P46734 1-347 (protein)
chain: MESPASSQPASMPQSKGKSKRKKDLRISCMSKPPAPNPTPPRNLDSRTFITIGDRNFEVEADDLVTISELGRGAYGVVEKVRHAQSGTIMAVKRIRATVNSQEQKRLLMDLDINMRTVDCFYTVTFYGALFREGDVWICMELMDTSLDKFYRKVLDKNMTIPEDILGEIAVSIVRALEHLHSKLSVIHRDVKPSNVLINKEGHVKMCDFGISGYLVDSVAKTMDAGCKPYMAPERINPELNQKGYNVKSDVWSLGITMIEMAILRFPYESWGTPFQQLKQVVEEPSPQLPADRFSPEFVDFTAQCLRKNPAERMSYLELMEHPFFTLHKTKKTDIAAFVKEILGEDS
- binding [9]: no binding
